The RNAGym collection of RNA variant scans (doi:10.7554/elife.90254)
The source gives no read counts; variants with many changes may rest on few reads.

B1: OR4K15 (parent)
chain: GUUAACGGUCAUAGGCCAUGGAAACUAGGAGCACCAUUUCGCUGCCAGUGAAGAAAUGAACAAAGAAAAUCUGGGCCAGGCAGGCAUCAAAAGAAAUAGUCUUGCGCUCAACCAGAAAGUCUGUAAUCAUUUUAAGGGUA

Variants of: B1
Experiment: self-cleavage, relative activity (ratio to wild type); higher = more cleavage; in vitro, sequencing; the parent is a self-cleaving ribozyme

Variant	self-cleavage
A22G U39C A110G	0.13
A23G A24G U122C	0.6
A22G A60G A94G A111G	0.11
A22G A64G A68U	1.02
A22G A30G U38C	1.46
A23C A60G U97C U103A	1.25
G21U A51G A114G	0.79
A23G A30G A69C	1.05
A22G A23G A117U	0
A22U U49A A52G A59G	0.72
G21A A24C A55G	0.96
A22G A59U U131C	1.09
A22U A30G A54G A56G A95G	0.58
A22G A111G U122C	0.05
A22G A24G U39C	0.84
G21A A27G A62G A92G U102C	1.64
A22G A30G U139C	0.72
A22G A23U A47G A78G A118G	0.14
A22G A60U A68G	0.93
A23C U49C A63G A69G A117U	0.32
A22G A60G C88U A96G	0.85
A22G U37A U43C	1.7
U19C U100C A116C G123C	1.65
A22G A91G U122C	0.87

Variant	self-cleavage
G21A A23G U37C U39C	1.04
A22G A96G U102C U108C U133C A135G	0.01
A22G C34U A54G	1.11
A22G A91G A95G	1.39
A22G U38C A62U A68G U132C	1.05
A22U A52G A111G	0.02
A22G A78G A126G	0.09
A22G A54G A129G	0.58
G20A A27G U132C	0.79
U19C U57C A60U U87C	0.44
A22G G104A A110G	0.01
A22G A54G A63U A86G U87C	0.32
A23C A110G U122C	0.08
U19C U100A A111G A117U U127C	0
A22U A114G U132A	0.23
G20A C40U A110G U124C	0.06
A22G A23G A24C A140G	0.67
A22G A36G A69G G106A U122C	0.01
A22G A67G A92G	1.15
A22G U43C U57C A82G A110U U122A A135G	0.05
A22G A62G U132C	1.55
A23G A27G U127C U132A	0.22
A22G A30G C61U	0.99
A22G G75A U132C	0.2

Variant	self-cleavage
A22G A67G U70A	0.33
A22G U87C A94G U102C	1.3
U19C U49C A94U	1.54
A22G A23G A55G U72C	0.33
A22G A66G A67G A90G A125G	0.14
A23C U49C U122C A126G	0.64
A22G A82G U103C	1.57
A22G A27G G136A	2.31
A22G A30G U49A	1
G20U U43A A56G C128A	1.11
A23G A27G A111U	0.19
A23G A30G C42U A78U A86G U103C C121U	0.08
A22G A62U A67G C121G	2.44
A22G A51G A94G U108C	0.05
A22G A78U A94G A117G A129C	0.17
A22G A51G A56G A59U A60G	1.33
A22G A82G U132C G137A	0.73
A22G A110G A118G	0.14
A22G A54G A94C U130C	0.38
A22G G41A A59U A82G U108C U122C G136A	0
A22G A23G U72A	0.42
A22G A56G U130C	1.66
A22G U43C C76U	0.26
A22G U38A C46U A62G	1.49

Variant	self-cleavage
A22G U120C U127A A129G	0.88
A22U A24G A30G A114U A140U	0.18
G20U A60G A96G A117G U122C	1.86
A22G A63G U103C	0.65
A22C U70C A98G	0.12
A22U A63G U87C U122C U139C	0.53
A23C A63G A64G A95G	0.99
A22G A47G A78U A111G	0.05
A22G A23G A60G A68G U122C	1.47
A22G A33C A52G U103C A134G	0.35
A22G A23G A47G U100C U103A	1.4
A22U A23G U87C	1.63
G21A A22G A78C G99A	0.17
A22U A24G A30G C32U U37C A78G	0.36
A22G A54U A95C U103A U108C U122C	0.03
G21A A92G U108A A125G	0
A22U G41A A69G U130C	0.63
A22G U72C U120G	0.18
A22G U43C U132C	0.86
A22G G29U U38C G48U U49G A56G	0.88
A22U A47G U120C U122A	0.28
A23G A30G A67G U124C	0.89
A22G A51U A67G A116U	0.24
U19C U122C A129G	1.5

Variant	self-cleavage
A22C U43C A86U	2.2
U19C U57C A67G U122C	1.41
A22G A98G U103C U122A	0.01
A22G A89C U122C	0.88
A22G A68U A96G C105A	0.05
A22G A64G A117G U132C A140G	0.71
A22G U37C A114U	0.09
A22G A91G U133C A135G	1.2
G21A A33G A96U A114G	0.16
A22G A36G U39C A63G	1.48
A22G A33G A52U A111C A116G U133G	0.01
A22G A78G U122C	0.34
A22G U26C U97A U102C	1.66
A22G A67G C128A	0.86
U19G A30U A134G	1.78
A22G U26C A52G U108A U130C	0.04
G20A A66G A110G	0.19
A22G A24G A36G	2.22
G21A A51G A126G	0.84
A22G A62G A90U	1.45
G20A A36G A78G	0.47
A22G A52G A56C A68G A78G	0.48
A22G C46U U139C	1.37
A22G U26C A62G A64G	0.4

Variant	self-cleavage
A23G A30G A33G G80A U108C U120C	0
A22U U102C U122A	1.34
A22U A52G A125G	0.46
A22G G44A U57C	1.35
A22G A30U A62G A67G G80U A94G A117G	0.1
A22G A23U G93A	1.23
A22U A30U A55G U57C A82G U122C	0.18
G21U A91G U102C	1.64
A22G G80A A82U	0.13
A22G A23U U49C	0.79
A22G U70C A90G A98G	0.19
A22G U49A A68G U120A	0.71
A22G A52G A68G A92G	1.04
G21U A24G A56G U108C	0.07
A23G A30G U39C A47U A63G A64G U100C U120C	0.93
A22G A23G A62G A68G	1.19
A22G A23G A69G A116G	0.16
U19G U38A A94G G106A	0
U19G U133G U139C	0.31
A22G U57C U102C	2.63
A22G U37C G41A C42A A51G A64U	0.59
U19C U87C A117G	1.8
A22G C45G G50A A56G A64U	1.39
A22G U37C G48A A117G	1.81

Variant	self-cleavage
U19C U49C A62C	1.32
A22G U49C A118G U130C	0.23
A22G U37C A59G U102C A126G	0.74
A22G A54U A56G A64G A82G A95U A118G	0.04
A22G A98G A135G	0.26
A22G U43A A69U G106A A111U	0
G20A A82U A117G	0.25
A22G A68G A90G	1.22
U19C U97G U102C U108C	0.01
A22G A33G A60G U100C A114G U122G A135G	0.54
A22G U57C U120C	0.45
A22G A52G A62U	1.15
A22U A86U A89G	2.13
A22G A78G A94G	0.21
A22U A33G A60G A63U A69C U70C	0.97
A22G G50A U132C	1.92
A22G A30U A56G U57C A64G	0.17
A22G A24U A135U	0.71
A23C A59U U87A U102C	1.55
G20U A33G U122C	0.2
A23G A24C A47U	0.88
A22G U43C A56G A68G A125G	0.32
A23C A68G A78G A89C A96G U139A	0.1
